Some of the results follow.
What was measured:
Assay in all cases: glycan array binding signal (z-score within array); higher = stronger binding
Conditions in all cases: glycan notation: IUPAC condensed, linker removed
[1] = biological target: Glc(b1-2)Glc(b1-2)Glc(b1-2)Glc(b1-2)Glc(b1-2)Glc(b1-2)Glc(b1-2)Glc(b1-2)Glc(b1-2)Glc(b1-2)Glc(b1-2)Glc
Outline: (§1)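 From the Consortium for Functional Glycomics database, 3228 arrays were curated, keeping only those whose protein sequence was available. Binding is given as a within-array Z-score averaged across arrays sharing a protein sequence and across linkers. Negative Z-scores can be read as non-binding.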

[2] = biological target: Glc(b1-2)Glc(b1-2)Glc(b1-2)Glc(b1-2)Glc(b1-2)Glc(b1-2)Glc(b1-2)Glc(b1-2)Glc(b1-2)Glc(b1-2)Glc(b1-2)Glc(b1-2)Glc
Outline: as §1

Glc(b1-3)Glc = biological target: Glc(b1-3)Glc
Outline: as §1

Glc(b1-3)Glc(b1-3)Glc = biological target: Glc(b1-3)Glc(b1-3)Glc
Outline: as §1

[3] = biological target: Glc(b1-3)Glc(b1-3)Glc(b1-3)Glc
Outline: as §1

[4] = biological target: Glc(b1-3)Glc(b1-3)Glc(b1-3)Glc(b1-3)Glc
Outline: as §1

[5] = biological target: Glc(b1-3)Glc(b1-3)Glc(b1-3)Glc(b1-3)Glc(b1-3)Glc
Outline: as §1

[6] = biological target: Glc(b1-3)Glc(b1-3)Glc(b1-3)Glc(b1-3)Glc(b1-3)Glc(b1-3)Glc
Outline: as §1

[7] = biological target: Glc(b1-3)Glc(b1-3)Glc(b1-3)Glc(b1-3)Glc(b1-3)Glc(b1-3)Glc(b1-3)Glc
Outline: as §1

[8] = biological target: Glc(b1-3)Glc(b1-3)Glc(b1-3)Glc(b1-3)Glc(b1-3)Glc(b1-3)Glc(b1-3)Glc(b1-3)Glc
Outline: as §1

[9] = biological target: Glc(b1-3)Glc(b1-3)Glc(b1-3)Glc(b1-3)Glc(b1-3)Glc(b1-3)Glc(b1-3)Glc(b1-3)Glc(b1-3)Glc
Outline: as §1

[10] = biological target: Glc(b1-3)Glc(b1-3)Glc(b1-3)Glc(b1-3)Glc(b1-3)Glc(b1-3)Glc(b1-3)Glc(b1-3)Glc(b1-3)Glc(b1-3)Glc
Outline: as §1

[11] = biological target: Glc(b1-3)Glc(b1-3)Glc(b1-3)Glc(b1-3)Glc(b1-3)Glc(b1-3)Glc(b1-3)Glc(b1-3)Glc(b1-3)Glc(b1-3)Glc(b1-3)Glc
Outline: as §1

[12] = biological target: Glc(b1-3)Glc(b1-3)Glc(b1-3)Glc(b1-3)Glc(b1-3)Glc(b1-3)Glc(b1-3)Glc(b1-3)Glc(b1-3)Glc(b1-3)Glc(b1-3)Glc(b1-3)Glc
Outline: as §1

[13] = biological target: Glc(b1-3)Glc(b1-3)Glc(b1-3)Glc(b1-3)Glc(b1-3)Glc(b1-3)Glc(b1-3)[Glc(b1-6)]Glc(b1-3)Glc
Outline: as §1

[14] = biological target: Glc(b1-3)Glc(b1-3)Glc(b1-3)Glc(b1-3)Glc(b1-3)Glc(b1-3)[Glc(b1-6)]Glc(b1-3)Glc(b1-3)Glc
Outline: as §1

[15] = biological target: Glc(b1-3)Glc(b1-3)Glc(b1-3)Glc(b1-3)[Glc(b1-6)]Glc(b1-3)Glc(b1-3)Glc(b1-3)Glc(b1-3)Glc
Outline: as §1

[16] = biological target: Glc(b1-3)Glc(b1-3)Glc(b1-3)[Glc(b1-6)]Glc(b1-3)Glc(b1-3)Glc(b1-3)Glc(b1-3)[Glc(b1-6)]Glc(b1-3)Glc
Outline: as §1

[17] = biological target: Glc(b1-3)Glc(b1-3)[Glc(b1-6)]Glc(b1-3)Glc(b1-3)Glc(b1-3)Glc(b1-3)Glc(b1-3)Glc(b1-3)Glc
Outline: as §1

Glc(b1-3)Glc(b1-4)Glc = biological target: Glc(b1-3)Glc(b1-4)Glc
Outline: as §1

[18] = biological target: Glc(b1-3)Glc(b1-4)Glc(b1-4)Glc
Outline: as §1

[19] = biological target: Glc(b1-3)Glc(b1-4)Glc(b1-6)Glc(b1-4)Glc
Outline: as §1

[20] = biological target: Glc(b1-3)[Glc(b1-6)]Glc(a1-3)Glc(b1-3)[Glc(b1-6)]Glc
Outline: as §1

[21] = biological target: Glc(b1-3)[Glc(b1-6)]Glc(b1-3)Glc(b1-3)Glc(b1-3)Glc(b1-3)Glc(b1-3)Glc(b1-3)Glc
Outline: as §1

Glc(b1-4)Glc = biological target: Glc(b1-4)Glc
Outline: as §1

Glc(b1-4)Glc(b1-3)Glc = biological target: Glc(b1-4)Glc(b1-3)Glc
Outline: as §1

[22] = biological target: Glc(b1-4)Glc(b1-3)Glc(b1-4)Glc
Outline: as §1

Glc(b1-4)Glc(b1-4)Glc = biological target: Glc(b1-4)Glc(b1-4)Glc
Outline: as §1

[23] = biological target: Glc(b1-4)Glc(b1-4)Glc(b1-3)Glc
Outline: as §1

[24] = biological target: Glc(b1-4)Glc(b1-4)Glc(b1-3)Glc(b1-4)Glc(b1-4)Glc(b1-3)Glc
Outline: as §1

[25] = biological target: Glc(b1-4)Glc(b1-4)Glc(b1-4)Glc
Outline: as §1

[26] = biological target: Glc(b1-4)Glc(b1-4)Glc(b1-4)Glc(b1-3)Glc
Outline: as §1

[27] = biological target: Glc(b1-4)Glc(b1-4)Glc(b1-4)Glc(b1-4)Glc
Outline: as §1

[28] = biological target: Glc(b1-4)Glc(b1-4)Glc(b1-4)Glc(b1-4)Glc(b1-4)Glc
Outline: as §1

[29] = biological target: Glc(b1-4)Glc(b1-4)Glc(b1-4)Glc(b1-4)Glc(b1-4)Glc(b1-4)Glc
Outline: as §1

[30] = biological target: Glc(b1-4)Glc(b1-4)Glc(b1-4)Glc(b1-4)Glc(b1-4)Glc(b1-4)Glc(b1-4)Glc
Outline: as §1

[31] = biological target: Glc(b1-4)Glc(b1-4)Glc(b1-4)Glc(b1-4)Glc(b1-4)Glc(b1-4)Glc(b1-4)Glc(b1-4)Glc
Outline: as §1

[32] = biological target: Glc(b1-4)Glc(b1-4)Glc(b1-4)Glc(b1-4)Glc(b1-4)Glc(b1-4)Glc(b1-4)Glc(b1-4)Glc(b1-4)Glc
Outline: as §1

[33] = biological target: Glc(b1-4)Glc(b1-4)Glc(b1-4)Glc(b1-4)Glc(b1-4)Glc(b1-4)Glc(b1-4)Glc(b1-4)Glc(b1-4)Glc(b1-4)Glc
Outline: as §1

[34] = biological target: Glc(b1-4)Glc(b1-4)Glc(b1-4)Glc(b1-4)Glc(b1-4)Glc(b1-4)Glc(b1-4)Glc(b1-4)Glc(b1-4)Glc(b1-4)Glc(b1-4)Glc
Outline: as §1

[35] = biological target: Glc(b1-4)Glc(b1-4)Glc(b1-4)Glc(b1-4)Glc(b1-4)Glc(b1-4)Glc(b1-4)Glc(b1-4)Glc(b1-4)Glc(b1-4)Glc(b1-4)Glc(b1-4)Glc
Outline: as §1

Glc(b1-6)Glc = biological target: Glc(b1-6)Glc
Outline: as §1

Glc(b1-6)Glc(b1-6)Glc = biological target: Glc(b1-6)Glc(b1-6)Glc
Outline: as §1

[36] = biological target: Glc(b1-6)Glc(b1-6)Glc(b1-6)Glc
Outline: as §1

[37] = biological target: Glc(b1-6)Glc(b1-6)Glc(b1-6)Glc(b1-6)Glc
Outline: as §1

[38] = biological target: Glc(b1-6)Glc(b1-6)Glc(b1-6)Glc(b1-6)Glc(b1-6)Glc
Outline: as §1

[39] = biological target: Glc(b1-6)Glc(b1-6)Glc(b1-6)Glc(b1-6)Glc(b1-6)Glc(b1-6)Glc
Outline: as §1

[40] = biological target: Glc(b1-6)Glc(b1-6)Glc(b1-6)Glc(b1-6)Glc(b1-6)Glc(b1-6)Glc(b1-6)Glc
Outline: as §1

[41] = biological target: Glc(b1-6)Glc(b1-6)Glc(b1-6)Glc(b1-6)Glc(b1-6)Glc(b1-6)Glc(b1-6)Glc(b1-6)Glc
Outline: as §1

[42] = biological target: Glc(b1-6)Glc(b1-6)Glc(b1-6)Glc(b1-6)Glc(b1-6)Glc(b1-6)Glc(b1-6)Glc(b1-6)Glc(b1-6)Glc
Outline: as §1

[43] = biological target: Glc(b1-6)Glc(b1-6)Glc(b1-6)Glc(b1-6)Glc(b1-6)Glc(b1-6)Glc(b1-6)Glc(b1-6)Glc(b1-6)Glc(b1-6)Glc
Outline: as §1

[44] = biological target: Glc(b1-6)Glc(b1-6)Glc(b1-6)Glc(b1-6)Glc(b1-6)Glc(b1-6)Glc(b1-6)Glc(b1-6)Glc(b1-6)Glc(b1-6)Glc(b1-6)Glc
Outline: as §1

[45] = biological target: Glc(b1-6)Glc(b1-6)Glc(b1-6)Glc(b1-6)Glc(b1-6)Glc(b1-6)Glc(b1-6)Glc(b1-6)Glc(b1-6)Glc(b1-6)Glc(b1-6)Glc(b1-6)Glc
Outline: as §1

[46] = biological target: Man(b1-4)Man(b1-4)Man(b1-4)Man
Outline: as §1

[47] = biological target: Man(b1-4)Man(b1-4)Man(b1-4)Man(b1-4)Man
Outline: as §1

[48] = biological target: Man(b1-4)Man(b1-4)Man(b1-4)Man(b1-4)Man(b1-4)Man
Outline: as §1

[49] = biological target: Xyl(b1-4)Xyl(b1-4)Xyl(b1-4)Xyl(b1-4)Xyl
Outline: as §1

[50] = biological target: Xyl(b1-4)Xyl(b1-4)Xyl(b1-4)Xyl(b1-4)Xyl(b1-4)Xyl
Outline: as §1

Measured: glycan array binding signal (z-score)

B1: Dectin-1 (Homo sapiens), Q9BXN2 (protein)
chain: TMAIWRSNSGSNTLENGYFLSRNKENHSQPTQSSLEDSVTPTKAVKTTGVLSSPCPPNWIIYEKSCYLFSMSLNSWDGSKRQCWQLGSNLLKIDSSNELGFIVKQVSSQPDNSFWIGLSRPQTEVPWLWEDGSTFSSNLFQIRTTATQENPSPNCVWIHVSVIYDQLCSVPSYSICEKKFSM
-0.136: [48]
-0.082: [46]
-0.08: [25]
-0.121: [47]
0.976: [10]
-0.088: Glc(b1-4)Glc
5: [11]
-0.11: Glc(b1-6)Glc
-0.094: [35]
-0.12: [49]
9.53: [12]
-0.145: all other assays above

Source: the supplement of paper PMC8728848
